Experimental data published in PubChem BioAssay AID602310 (National Center for Advancing Translational Sciences (NCATS), 2012).
The whole screen tested about 410,000 compounds, of which about 310 (0.076%) were called active. Inconclusive means that the source gave no clear call. Such entries were picked first, then a sample of the others. Calls come from the whole dose curve; as a rule, active = well fitted curve in the direction sought with a large enough effect; inconclusive = small, poorly fitted or top-dose-only effect; inactive = flat fitted curve, though single readings scatter. Potencies of inconclusive entries are doubtful fits and often do not repeat.

target: DNA dC->dU-editing enzyme APOBEC-3G (Homo sapiens) (UniProt Q9HC16); assay: qHTS for Inhibitors of Vif-A3G Interactions: qHTS; details: HeLa A3G-eYFP + Vif (tagged APOBEC3G with the HIV-1 protein that degrades it), YFP fluorescence, overnight; series mostly up to 46.1 µM; activity, negative = active: at the top concentration; note: nearly all actives have a fitted effect of over 60% in size;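 for activity, negative = active: hits raise eYFP signal because A3G escapes Vif-driven loss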
Method in brief: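 Read-out is eYFP fluorescence (Ex 488/Em 500-530) from Vif-expressing HeLa A3G-eYFP cells; more signal means A3G escaped Vif-mediated degradation. Cells plated overnight, compound pinned in, incubated overnight at 37 deg C.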
% is set by controls: 0 for no effect and ±100 for the full control effect; potency is the fitted concentration of half-maximal effect; tags give direction and shape of the fitted curve.

Sequence of UniProt Q9HC16 (Q9HC16 whole entry, looked up): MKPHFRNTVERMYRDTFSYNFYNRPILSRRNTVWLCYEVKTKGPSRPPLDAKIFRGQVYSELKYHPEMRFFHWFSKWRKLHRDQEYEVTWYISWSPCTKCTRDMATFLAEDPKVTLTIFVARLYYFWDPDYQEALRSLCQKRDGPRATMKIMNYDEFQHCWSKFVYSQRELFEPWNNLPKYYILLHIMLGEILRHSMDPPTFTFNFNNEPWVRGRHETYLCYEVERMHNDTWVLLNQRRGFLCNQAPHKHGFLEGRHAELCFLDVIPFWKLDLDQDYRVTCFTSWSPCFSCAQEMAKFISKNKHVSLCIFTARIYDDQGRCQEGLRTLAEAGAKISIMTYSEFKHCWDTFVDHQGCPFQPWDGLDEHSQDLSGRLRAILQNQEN

Compound | Potency | activity, negative = active
CCc1ccc(O)c(N=Cc2cccc(C)c2O)c1 | inconclusive: 35.5 µM [inhibitor, partial curve, poor fit] | –
CCOCCc1nn2c(=O)cc(COC(=O)c3cccc(C)c3)nc2s1 | – | inactive: -4.4%
CN1CCN(c2ncnc3sc(-c4ccccc4)cc23)CC1 | – | inactive: 0.344%
C(=N\Nc1nc(N2CCOCC2)nc(N2CCOCC2)n1)/c1cccnc1 | – | inactive: 0.58%
O=C(Nc1ccccc1N(C(=O)c1ccco1)S(=O)(=O)c1cccs1)c1ccco1 | inconclusive: 12.6 µM [inhibitor, partial curve, poor fit] | –
Cc1cccc(CN2CCC(CNC(=O)Nc3ccccc3F)CC2)c1 | – | inactive: 0.91%
O=C(O)c1cccc(-n2cccc2/C=C2/NC(=O)N(Cc3ccccc3F)C2=O)c1 | inconclusive: 10 µM [inhibitor, partial curve, poor fit] | –
Cc1onc(-c2c(Cl)cccc2Cl)c1C(=O)N1CCCc2ccccc21 | inconclusive: 35.5 µM [inhibitor, partial curve, poor fit] | –
COc1ccc(C(=O)N2CCc3cc(OC)c(OC)cc3C2c2ccc(OC)c(OC)c2)cc1 (centres undefined) | inconclusive: 25.1 µM [inhibitor, single point] | –
COCCNc1nc2nonc2nc1N(C)Cc1cccc2cnccc12 | – | inactive: -0.196%
O=[N+]([O-])c1ccc(Sc2cccc3cccnc23)c([N+](=O)[O-])c1 | inconclusive: 2.82 µM [inhibitor, partial curve, poor fit] | –
COc1ccc(Cc2nnc(NC(=O)c3cc(OC)c(OC)c(OC)c3)s2)cc1OC | inconclusive: 20 µM [inhibitor, single point] | –
CCn1cc(/C=C/c2cc[n+](C)cc2)c2ccccc21 | active: 2.51 µM | –
COc1ccccc1NC(=O)Nc1nc(CC(=O)NCc2c(F)cccc2F)cs1 | – | inactive: -0.287%
O=C(c1cnn2c1NC(=C1CC1)C=C2C(F)F)N1CCc2ccccc21 | inconclusive: 5.62 µM [inhibitor, full curve, poor fit] | –
O=C(CSc1nnnn1-c1ccc2c(c1)OCO2)NCc1ccccc1 | inconclusive: 8.91 µM [inhibitor, partial curve] | –
CCOc1ccc(NC(=O)c2ccc3c(c2)c(C)c(C)n3Cc2ccc(F)cc2)cc1 | inconclusive: 3.16 µM [inhibitor, full curve, poor fit] | –
Clc1ccc2nccnc2c1 | inconclusive: 8.91 µM [inhibitor, partial curve, poor fit] | –
COc1ccc(CNS(=O)(=O)CCNCc2ccccc2OC)cc1 | – | inactive: 0.087%
CC(C)=CCC/C(C)=C/Cc1c(O)ccc(C(=O)/C=C/c2ccc(O)cc2)c1O | – | inactive: -1.44%
Nc1c(Cl)cc(C2=NCCn3c2c2ccc([N+](=O)[O-])cc2[n+]3[O-])cc1Cl | inconclusive: 12.6 µM [inhibitor, single point] | –
CCN(CC)CC(C)(C)C(=O)/C=C/c1ccc(/C=C/C(=O)C(C)(C)CN(CC)CC)cc1 | inconclusive: 5.62 µM [inhibitor, single point] | –

Compound | Potency | activity, negative = active
Cc1cc(N=Cc2c(O)n(-c3ccc4c(c3)OCO4)c(=O)c3ccccc23)ccn1 | inconclusive: 22.4 µM [inhibitor, single point] | –
Cc1ccc2c(c1)C1(SCCS1)C(=O)N2 | inconclusive: 35.5 µM [inhibitor, partial curve, poor fit] | –
O=C(N/N=C/c1cccnc1)c1cc(-c2ccc(Cl)cc2)nc2ccccc12 | inconclusive: 7.08 µM [inhibitor, partial curve, poor fit] | –
CN(Cc1nc2ccccc2c(=O)[nH]1)C(=O)COc1ccccc1Cc1ccccc1 | – | inactive: -4.45%
COc1ccc(-c2oc(NC(=O)CSc3nncn3C)c(C#N)c2-c2ccc(OC)cc2)cc1 | inconclusive: 6.31 µM [inhibitor, full curve] | –
O=C(NCc1ccccn1)c1ccc(Cn2c(=S)[nH]c3ccccc3c2=O)cc1 | inconclusive: 14.1 µM [inhibitor, single point] | –
Cn1cccc1/C=C1\SC(=O)N(c2ccc(O)cc2)C1=O | inconclusive: 25.1 µM [inhibitor, single point] | –
NS(=O)(=O)c1ccc(Nc2ncccc2[N+](=O)[O-])cc1 | – | inactive: -1.27%
Cc1ccc(F)cc1NC(=O)COC(=O)c1ccc(S(C)(=O)=O)c([N+](=O)[O-])c1 | inconclusive: 31.6 µM [inhibitor, single point] | –
Cc1cc(C)cc(S(=O)(=O)c2cnc3ccccc3n2)c1 | – | inactive: -3.58%
Cc1ccc[n+](CC(=O)Nc2cc(C(F)(F)F)ccc2N2CCOCC2)c1 | – | inactive: 1.37%
C=CCOc1ccccc1/C=c1\sc2nc(=O)c(C)nn2c1=O | – | inactive: -2.19%
CCOC(=O)C(C)Sc1nc2c(cnn2-c2ccc(C)cc2)c(=O)[nH]1 (centres undefined) | inconclusive: 7.08 µM [inhibitor, partial curve, poor fit] | –
CCCc1cc(=O)oc2c(CNc3ccc(OCC)cc3)c(O)ccc12 | inconclusive: 35.5 µM [inhibitor, single point] | –
CCCCCN1CC(=O)N2[C@@H](Cc3c([nH]c4ccccc34)C2(C)C)C1=O | – | inactive: -2.17%
COc1cc(C2c3cc4c(cc3OC(NCc3ccccc3)C2C)OCO4)cc(OC)c1OC (centres undefined) | inconclusive: 0.631 µM [inhibitor, full curve, poor fit] | –
COc1ccc(C2C(C#N)=C(N)Oc3cc(N)ccc32)cc1OC (centres undefined) | inconclusive: 10 µM [inhibitor, partial curve, poor fit] | –
Cc1[nH]c2ccccc2c1/C=N/NC(=O)c1cc(-c2ccncc2)nc2ccccc12 | inconclusive: 5.01 µM [inhibitor, full curve] | –
Cc1c(NC(=O)CSc2nnc(COc3ccccc3)n2-c2ccccc2)c(=O)n(-c2ccccc2)n1C | – | inactive: 1.95%
CCCn1c(N)c(C(=O)CSc2nc(C)cs2)c(=O)n(C)c1=O | – | inactive: -0.463%
CN1CCc2c(sc(NC(=O)CSc3ccc(F)cc3)c2-c2nc3ccccc3s2)C1 | inconclusive: 1.78 µM [inhibitor, full curve, poor fit] | –
O=C(C=Cc1cccc(Cl)c1)c1ccccc1 | inconclusive: 31.6 µM [inhibitor, partial curve, poor fit] | –
